Results published in PubChem BioAssay AID360 (National Center for Advancing Translational Sciences (NCATS), 2006).
Out of some 48,000 compounds screened, about 550 (1.1%) were called active. Roughly 4% stayed inconclusive and do not appear here. Cut-off read from the data, not from the text of the source: active = potency below about 15 µM; inconclusive = mostly about 16 µM to 33 µM; inactive = weaker than that. The list shows a part of the results.

molecular target: Lysosomal acid glucosylceramidase (Homo sapiens) (UniProt P04062); assay: Glucocerebrosidase; conditions: purified enzyme, resorufin glucoside fluorescence (screen aimed at inhibitors), 20 min; series mostly up to 77 µM;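 note: the screen sought inhibitors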
Sequence of UniProt P04062 (P04062 whole entry, looked up): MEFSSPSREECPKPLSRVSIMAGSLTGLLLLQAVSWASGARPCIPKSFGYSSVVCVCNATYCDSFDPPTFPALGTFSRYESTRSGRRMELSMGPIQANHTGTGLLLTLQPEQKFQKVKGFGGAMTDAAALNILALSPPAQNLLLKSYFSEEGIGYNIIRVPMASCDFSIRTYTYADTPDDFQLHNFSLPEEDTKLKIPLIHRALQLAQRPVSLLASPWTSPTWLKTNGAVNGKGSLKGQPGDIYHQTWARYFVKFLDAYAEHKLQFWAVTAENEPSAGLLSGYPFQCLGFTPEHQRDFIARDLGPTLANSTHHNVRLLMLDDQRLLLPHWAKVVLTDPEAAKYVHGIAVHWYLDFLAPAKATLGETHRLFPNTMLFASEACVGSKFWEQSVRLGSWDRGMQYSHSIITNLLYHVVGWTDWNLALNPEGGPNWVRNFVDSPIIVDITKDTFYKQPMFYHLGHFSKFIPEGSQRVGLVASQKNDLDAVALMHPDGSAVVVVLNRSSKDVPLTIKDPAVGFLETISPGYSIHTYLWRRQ
How it was run: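 Normal human glucocerebrosidase (0.2 nM final) was assayed with resorufin β-D-glucopyranoside (30 uM final) in 50mM citric acid/KH2PO4, 10mM sodium taurocholate, 0.01% tween-20, pH 5.9. Compounds were titrated; fluorescence (Ex 548, Em 600) read after 20 min at RT.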
Potency is the fitted concentration of half-maximal effect.

Potency, inactive:
O=C(Nc1ccc(S(=O)(=O)N2CCC(C(=O)NC3CCCCC3)CC2)cc1)c1ccco1 > 76.9 µM
CCOC(=O)C(Cc1cc(C(C)=O)ccc1OCC)C(=O)OCC > 76.9 µM
COc1ccc(-c2noc(CCC(=O)N3CCN(c4cccc(C(F)(F)F)c4)CC3)n2)cc1 > 76.9 µM
CCn1c(SC)nnc1-c1sc2cc(Cl)ccc2c1Cl > 76.9 µM
Cn1c(=O)n(CC(=O)NCc2cccnc2)c2ccccc21 > 76.9 µM
COc1ccccc1NC(=O)CN(C)S(=O)(=O)c1ccc(F)cc1 > 76.9 µM
O=C(OCc1nc2ccccc2s1)C1CCN(C2=NS(=O)(=O)c3ccccc32)CC1 > 76.9 µM
O=C(c1sc2ccccc2c1Cl)N(Cc1ccco1)C1CCS(=O)(=O)C1 (stereo unspecified) > 76.9 µM
CC1(C)c2ccccc2N2CC(=O)N(CC(N)=O)C21C (stereo unspecified) > 76.9 µM
Cc1cc(NC(=O)c2cc3ccccc3o2)cc(C)c1OCC(=O)N1CCOCC1 > 76.9 µM
CCC(Sc1nc(N)cc(=O)[nH]1)C(=O)NC(C(=O)OC)c1ccccc1 (stereo unspecified) > 76.9 µM
c1ccc(OCc2nn3c(-c4n[nH]c5c4CCC5)nnc3s2)cc1 > 76.9 µM
O=C(NC(Cc1ccccc1)C(=O)O)c1ccc(S(=O)(=O)N2CCOCC2)cc1 (stereo unspecified) > 76.9 µM
CCCN(CCC)C(=O)CCS(=O)(=O)c1cccc2nsnc12 > 76.9 µM
Clc1ccc(NC2=NCCCCC2)cc1 > 76.9 µM
COc1ccc(CC(=O)Nc2ccc(OC)c(NC(=O)c3ccco3)c2)cc1 > 76.9 µM
CC(=O)N1c2c(cc(Br)cc2S(=O)(=O)NCC2COc3ccccc3O2)CC1C (stereo unspecified) > 76.9 µM
Cc1cccc(OCc2nnc(SCC(=O)Nc3cc(C)on3)n2C)c1 > 76.9 µM
Cc1cc(C(=O)Nc2c(C)nn(Cc3ccccc3Cl)c2C)no1 > 76.9 µM
CC1CCN(CCCn2c(=S)[nH]c3ccc(N4CCOCC4)cc3c2=O)CC1 > 76.9 µM
CCn1c(=S)sc2c(=O)n(-c3ccccc3)c(SCC(=O)NCc3ccco3)nc21
CCOC(=O)N1CCN(C(=O)c2cc(-n3cnnc3)ccc2Cl)CC1 > 76.9 µM
Cc1cc(Nc2ccccc2)n(CCC#N)n1 > 76.9 µM
Cc1ccc(NC(=O)c2cccs2)cc1NC(=O)c1ccco1 > 76.9 µM
CCOC(=O)C1CCN(C(=O)c2n[nH]c(=O)c3ccccc23)CC1 > 76.9 µM
O=C(NCc1ccc(F)cc1)C1CCCN(C(=O)Nc2ccccc2)C1 (stereo unspecified) > 76.9 µM
O=C(NCc1ccco1)c1c[nH]c2ccc(S(=O)(=O)N3CCOCC3)cc2c1=O > 76.9 µM
Cc1ccccc1NC(=O)c1c(O)c2cccc3c2n(c1=O)CC3 > 76.9 µM
COc1ccccc1N(C(C)=O)C1SC(=O)N(c2ccccc2)C1=O (stereo unspecified) > 76.9 µM
CCNS(=O)(=O)c1cc(S(C)(=O)=O)ccc1Cl > 76.9 µM
CCCC1C2CN(C(C)=O)CC=C2C(C#N)=C(N)C1(C#N)C#N (stereo unspecified) > 76.9 µM
COc1ccc(C)cc1S(=O)(=O)N(C)CC(N)=O > 76.9 µM
O=C(Cc1ccccc1)Nc1ccc(NC(=O)c2ccco2)nc1 > 76.9 µM
CC1(C)Cc2c(c(-c3ccccc3)[nH]c(=O)c2C#N)CO1 > 76.9 µM
COc1cc(C(=O)OC2CCN(C)CC2)cc(OC)c1OC > 76.9 µM
COc1cc(OC)cc(-c2cc3nc(C)c(CCC(=O)NC(C)CCc4ccco4)c(C)n3n2)c1 (stereo unspecified) > 76.9 µM
N=c1c2c(n(Cc3ccc(Cl)cc3)c3c1CCC3)CCC2 > 76.9 µM
CCCn1c(SCC(=O)Nc2nnc(CC)s2)nc2c1c(=O)n(C)c(=O)n2C > 76.9 µM
CC1Cc2ccccc2N1C(=O)COC(=O)c1ccc(S(=O)(=O)N(C)C)cc1 (stereo unspecified) > 76.9 µM
NC(=O)c1c(NC(=O)CSc2nnc(-c3ccccc3)n2CC2CCCO2)sc2c1CCC2 (stereo unspecified) > 76.9 µM
CN1c2ccccc2N(C)C1c1ccc2c(c1)OCO2 > 76.9 µM
O=C(NCc1ccncc1)C1CCCN(S(=O)(=O)Cc2ccccc2)C1 (stereo unspecified) > 76.9 µM
O=c1[nH]c(Cc2cccs2)nc2ccccc12 > 76.9 µM
O=c1oc2cc(O)ccc2cc1-c1ccc(F)cc1 > 76.9 µM
O=C(O)CCC(=O)NCCn1c(-c2ccccc2)csc1=Nc1ccccc1 > 76.9 µM
Cc1ccc2cc(C#N)c(NCCNC(=O)C3CC3)nc2c1C > 76.9 µM
COc1ccc2[nH]c3c(=O)n(CCCCC(=O)N4CCC(C(N)=O)CC4)c(=S)[nH]c3c2c1 > 76.9 µM
COc1ccc(S(=O)(=O)N2CCc3ccccc32)cc1C(=O)OCc1nnc(-c2ccccc2)o1 > 76.9 µM
Cc1cc(C(=O)CN2C(=O)NC3(CCCc4ccccc43)C2=O)c(C)n1Cc1cccs1 (stereo unspecified) > 76.9 µM
COc1cccc(-n2ccnc2SCC(=O)NCc2ccccc2)c1 > 76.9 µM
O=C(CSc1ncnc2nc[nH]c12)N1CCN(c2ccc(Cl)cc2)CC1 > 76.9 µM
O=C(c1cccn2c(=O)c3ccc(Cl)cc3nc12)N1CCN(Cc2ccc3c(c2)OCO3)CC1 > 76.9 µM
COCCN(C(=O)C(F)(F)F)C(C(=O)NC1CCCCC1)c1ccco1 (stereo unspecified) > 76.9 µM
CS(=O)(=O)c1ccc(Cl)c(NC(=O)C2CC(=O)N(Cc3ccccc3)C2)c1 (stereo unspecified) > 76.9 µM
CCn1c(CNc2cccc(Cl)c2)nnc1SCc1ccccc1
CC1CC(C)CN(CCCNC(=O)c2ccc3c(c2)NC(=O)C(N2CCCCC2)S3)C1 (stereo unspecified) > 76.9 µM
